Laboratory results from patent US11833215B2, “CKIT antibody drug conjugates” (Novartis AG, priority 2014, dated 2023).

Tests used:
human cKIT = target: T1, human cKIT (Homo sapiens, UniProt P10721); experiment: SPR (Biacore) affinity measurement; assay type: binding; settings: 25° C., 1:1 model
T1 construct: Human cKIT tr. variant 2 , residues 26-520-TAG; made in house; host or cells: HEK293 derived cell line 293FS, transient transfection
Protocol: (§1) Affinity of the antibodies to cKIT species orthologues and also to cKIT was determined using SPR technology using a Biacore® 2000 instrument (GE Healthcare, Pittsburgh, PA) and with CM5 sensor chips.
(§2) Briefly, HBS-P (0.01 M HEPES, pH 7.4, 0.15 M NaCl, 0.005% Surfactant P20) supplemented with 2% Odyssey® blocking buffer (Li-Cor Biosciences, Lincoln, NE) was used as the running buffer for all the experiments. The immobilization level and analyte interactions were measured by response unit (RU). Pilot experiments were performed to test and confirm the feasibility of the immobilization of the anti-human Fc antibody (Catalog number BR100839, GE Healthcare, Pittsburgh, PA) and the capture of the test antibodies.
(§3) For kinetic measurements, the experiments were performed in which the antibodies were captured to the sensor chip surface via the immobilized anti-human Fc antibody and the ability of the cKIT proteins to bind in free solution was determined. Briefly, 25 μg/ml of anti-human Fc antibody at pH 5 was immobilized on a CM5 sensor chip through amine coupling at flow rate of 5 μl/minute on all two flow cells to reach 10,500 RUs. 0.1-1 μg/ml of test antibodies were then injected at 10 μl/min for 1 minute. Captured levels of the antibodies were generally kept below 200 RUs. Subsequently, 3.125 −50 nM of cKIT receptor extracellular domains (ECD) were diluted in a 2-fold series and injected at a flow rate of 40 μl/min for 3 min over both reference and test flow cells. Table of tested ECDs is listed below (Table 6). Dissociation of the binding was followed for 10 min. After each injection cycle, the chip surface was regenerated with 3 M MgCl2 at 10 μl/min for 30 seconds.

mouse cKIT = target: T2, mouse cKIT (Mus musculus, UniProt P05532); experiment: SPR (Biacore) affinity measurement; assay type: binding; settings: 25° C., 1:1 model
T2 construct: cKIT receptor extracellular domains (ECD) were diluted in a 2-fold series
T2 sequence (P05532 25-527 limits assumed): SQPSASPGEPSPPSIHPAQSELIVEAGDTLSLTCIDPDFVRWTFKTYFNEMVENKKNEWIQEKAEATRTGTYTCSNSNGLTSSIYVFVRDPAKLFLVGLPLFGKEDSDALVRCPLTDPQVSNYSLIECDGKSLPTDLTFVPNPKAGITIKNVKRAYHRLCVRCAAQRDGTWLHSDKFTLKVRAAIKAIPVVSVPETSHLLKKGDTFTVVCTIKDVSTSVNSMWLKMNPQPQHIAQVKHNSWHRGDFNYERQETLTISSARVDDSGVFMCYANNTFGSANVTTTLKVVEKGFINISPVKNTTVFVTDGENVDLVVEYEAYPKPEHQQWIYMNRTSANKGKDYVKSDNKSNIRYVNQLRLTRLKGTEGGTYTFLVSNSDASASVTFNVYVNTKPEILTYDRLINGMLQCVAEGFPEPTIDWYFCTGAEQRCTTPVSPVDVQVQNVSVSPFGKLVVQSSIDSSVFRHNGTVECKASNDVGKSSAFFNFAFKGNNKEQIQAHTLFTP
Protocol: as §1, §2, §3

rat cKIT = experiment: SPR (Biacore) affinity measurement; assay type: binding; settings: 25° C., 1:1 model
Protocol: as §1, §2, §3

[1] = tested on: cKIT positive NCI-H526 SCLC tumor xenograft; settings: 10 mg/kg single dose IV, Day 21
Excerpt: For the structure of the Eg5 inhibitor 5B, see Table 1. […] Mice were enrolled in the study 13 days post implantation with average tumor volume of ˜182 mm^3-270 mm^3.

T1 sequence (P10721 with tags, fused parts or gaps isoform P10721-2): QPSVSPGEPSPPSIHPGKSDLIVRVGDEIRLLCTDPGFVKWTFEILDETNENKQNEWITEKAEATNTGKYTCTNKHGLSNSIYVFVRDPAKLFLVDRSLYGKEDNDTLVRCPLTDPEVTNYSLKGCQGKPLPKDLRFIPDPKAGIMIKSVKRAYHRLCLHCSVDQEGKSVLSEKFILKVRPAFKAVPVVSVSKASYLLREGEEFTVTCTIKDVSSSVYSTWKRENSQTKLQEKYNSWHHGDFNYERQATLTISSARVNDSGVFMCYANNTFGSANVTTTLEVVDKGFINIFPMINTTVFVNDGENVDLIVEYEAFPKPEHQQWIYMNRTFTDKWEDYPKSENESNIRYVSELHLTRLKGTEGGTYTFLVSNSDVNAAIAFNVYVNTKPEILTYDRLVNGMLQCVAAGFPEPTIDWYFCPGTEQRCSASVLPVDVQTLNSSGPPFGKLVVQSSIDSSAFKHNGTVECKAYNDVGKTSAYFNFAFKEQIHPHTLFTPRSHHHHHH

B1: 20507 (antibody)
heavy: QVQLVQSGAEVKKPGSSVKVSCKASGGTFSSYAISWVRQAPGQGLEWMGTIGPFEGQPRYAQKFQGRVTITADESTSTAYMELSSLRSEDTAVYYCARGGYISDFDVWGQGTLVTVSSASTKGPSVFPLAPSSKSTSGGTAALGCLVKDYFPEPVTVSWNSGALTSGVHTFPAVLQSSGLYSLSSVVTVPSSSLGTQTYICNVNHKPSNTKVDKRV[human IgG1 Fc not spelt out]
light: DIQMTQSPSSLSASVGDRVTITCRASQSISNYLAWYQQKPGKAPKLLIYDASSLQSGVPSRFSGSGSGTDFTLTISSLQPEDFATYYCQQYYYESITFGQGTKVEIKRTVAAPSVFIFPPSDEQLKSGTASVVCLLNNFYPREAKVQWKVDNALQSGNSQESVTEQDSKDSTYSLSSTLTLSKADYEKHKVYACEVTHQGLSSPVTKSFNRGEC
In the case of B1, the “Affinity human cKIT (nM)” value (human cKIT) is reported as “nanomolar level”, the Kd (human cKIT) is reported as 1.8 nM and the “Affinity mouse cKIT (nM)” value (mouse cKIT) is reported as “Not reactive”. For the same molecule, the “Affinity to rat cKIT (nM)” value (rat cKIT) was “Not reactive”, the “Mean change of body weight (% ± SEM)” value [1] was 8.2 ± 1.2% and the “Mean change of tumor volume (mm3 ± SEM)” value [1] was 1330 ± 49 mm3. For the same molecule, the “Mean change of tumor volume vs control (ΔT/ΔC) (%)” value [1] was 96% and the “Survival (survivors/total)” value [1] was 5/5.
